24 compounds from paper PMC4336329 (PLoS ONE, 2015) can be followed below.

Structures are written as SMILES. The whole screen tested about 310,000 compounds, of which about 2,200 (0.71%) showed an effect of 50% or more. The effect is printed as a negative number. The list shows a part of the results.

In this test the target is human ether-à-go-go-related gene (hERG) potassium channel (human, UniProt Q12809). Put plainly: primary screen, population patch clamp on CHO cells stably expressing hERG.
human ether-à-go-go-related gene (hERG) potassium channel, sequence (Q12809 whole entry, looked up): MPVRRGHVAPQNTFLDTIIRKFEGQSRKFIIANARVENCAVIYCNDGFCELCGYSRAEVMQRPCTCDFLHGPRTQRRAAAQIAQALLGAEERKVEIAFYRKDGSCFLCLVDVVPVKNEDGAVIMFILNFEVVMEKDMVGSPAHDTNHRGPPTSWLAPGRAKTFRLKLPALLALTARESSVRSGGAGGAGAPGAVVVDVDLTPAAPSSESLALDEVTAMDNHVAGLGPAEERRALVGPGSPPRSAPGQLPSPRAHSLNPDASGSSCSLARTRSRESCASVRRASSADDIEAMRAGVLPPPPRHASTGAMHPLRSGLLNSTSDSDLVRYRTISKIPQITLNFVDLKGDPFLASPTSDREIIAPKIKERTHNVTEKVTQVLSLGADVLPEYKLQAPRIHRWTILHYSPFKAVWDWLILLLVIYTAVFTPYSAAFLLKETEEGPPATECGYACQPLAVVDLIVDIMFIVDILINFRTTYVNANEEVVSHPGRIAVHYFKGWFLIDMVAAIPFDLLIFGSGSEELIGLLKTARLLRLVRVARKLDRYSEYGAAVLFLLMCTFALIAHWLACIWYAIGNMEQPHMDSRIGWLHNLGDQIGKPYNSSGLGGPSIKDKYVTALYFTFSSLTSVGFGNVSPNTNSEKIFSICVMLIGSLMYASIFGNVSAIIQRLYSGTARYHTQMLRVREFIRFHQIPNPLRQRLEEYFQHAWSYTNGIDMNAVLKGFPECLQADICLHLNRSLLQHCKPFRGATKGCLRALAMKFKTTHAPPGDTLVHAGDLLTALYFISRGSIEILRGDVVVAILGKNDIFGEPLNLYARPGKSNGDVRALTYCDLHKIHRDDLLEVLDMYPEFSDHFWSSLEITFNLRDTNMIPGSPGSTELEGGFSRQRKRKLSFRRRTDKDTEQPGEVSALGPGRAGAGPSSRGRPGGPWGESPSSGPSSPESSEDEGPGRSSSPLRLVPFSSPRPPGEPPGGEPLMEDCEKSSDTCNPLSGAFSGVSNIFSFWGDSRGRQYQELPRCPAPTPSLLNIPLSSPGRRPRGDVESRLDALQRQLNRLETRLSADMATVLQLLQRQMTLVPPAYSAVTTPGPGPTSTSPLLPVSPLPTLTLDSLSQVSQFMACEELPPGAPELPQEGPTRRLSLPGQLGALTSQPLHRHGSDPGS
With `CCOc1ccc(NC(=O)CSc2nnc(Cn3cnc4ccccc43)n2C)cc1`, the “hERG current change (%, negative = inhibition) at 1uM” value is -3.91%.

In the case of `O=C(NCCCn1ccnc1)c1nn2c(C(F)(F)F)cc(-c3ccccc3)nc2c1Cl`, the “hERG current change (%, negative = inhibition) at 1uM” value was determined as 0.542%.

Turning to `O=C(Cc1c(F)c(F)c(F)c(F)c1F)Nc1nc(-c2ccccc2)cs1`, the “hERG current change (%, negative = inhibition) at 1uM” value was 9.84%.

Consider `O=C1NC(=O)C(CCc2ccncc2)(Cc2ccc3c(c2)OCO3)C(=O)N1CCc1ccccc1` (stereo not drawn), for which the “hERG current change (%, negative = inhibition) at 1uM” value is listed as -10.8%.

Regarding `COc1ccc(NC(=S)N2CCN(c3ncccn3)CC2)cc1`, the “hERG current change (%, negative = inhibition) at 1uM” value came to 17.7%.

In the case of `Clc1ccc(CNCc2cccs2)cc1Cl`, the “hERG current change (%, negative = inhibition) at 1uM” value is 19.2%.

As for `CCCCN(C(=O)/C=C/c1ccc(OCC(C)C)c(OCC)c1)c1c(N)n(CCC)c(=O)[nH]c1=O`, the “hERG current change (%, negative = inhibition) at 1uM” value worked out at 6.21%.

As to `O=C(CSc1nc2ccccc2n1-c1ccccc1)NCC1CCCO1` (stereo not drawn), the “hERG current change (%, negative = inhibition) at 1uM” value is recorded as -5.93%.

Take `Cc1occc1C(=O)NNC(=S)Nc1ccccc1C(F)(F)F`: the “hERG current change (%, negative = inhibition) at 1uM” value worked out at 12.2%.

On to `COC(=O)c1c(NC(=O)CN2C(=O)NC3(CCc4ccccc4C3)C2=O)sc2c1CCCCC2` (stereo not drawn), for which the “hERG current change (%, negative = inhibition) at 1uM” value is reported as 13.3%.

`CC(C)(C)c1ccc(Oc2ccc(NC(=O)CCCC(=O)O)cn2)cc1`: the “hERG current change (%, negative = inhibition) at 1uM” value was determined as 15.4%.

Turning to `CN1CCN(CCCNCc2cn(CCC#N)c3ccccc23)CC1.O=C(O)C(=O)O`, the “hERG current change (%, negative = inhibition) at 1uM” value was determined as 7.34%.

Consider `O=C(COC(=O)/C=C/c1ccc(F)cc1)Nc1ccc2[nH]c(=O)[nH]c2c1`, for which the “hERG current change (%, negative = inhibition) at 1uM” value amounted to 12.9%.

For `CCCCCn1nc(C(=O)N2CCc3ccccc32)c2ccccc2c1=O`, the “hERG current change (%, negative = inhibition) at 1uM” value is given as 7.31%.

Regarding `O=[N+]([O-])c1ccc(N2CCN(Cc3ccc(Br)o3)CC2)cc1`, the “hERG current change (%, negative = inhibition) at 1uM” value is -32.6%.

Consider `CCOc1cc(C=C2C(=O)NC(=O)NC2=O)cc([N+](=O)[O-])c1O`, for which the “hERG current change (%, negative = inhibition) at 1uM” value came to 17.4%.

Turning to `Cc1cccc(NC(=S)N/N=C/c2cccc(O)c2)c1C`, the “hERG current change (%, negative = inhibition) at 1uM” value is on record as 16.6%.

On to `COc1ccc2[nH]c(C)c(CCN(Cc3cccs3)C(=S)Nc3ccccc3)c2c1`, for which the “hERG current change (%, negative = inhibition) at 1uM” value is 6.37%.

Turning to `O[C@H]1COC2C1OC[C@@H]2O` (stereo partly drawn), the “hERG current change (%, negative = inhibition) at 1uM” value is 2.29%.

As to `C=CCn1c(NC(=O)c2ccccc2)nc2ccccc21`, the “hERG current change (%, negative = inhibition) at 1uM” value stood at 14.9%.

For the compound `O=C(N/N=C/c1ccccc1C(F)(F)F)c1ccc2nc[nH]c2c1`, the “hERG current change (%, negative = inhibition) at 1uM” value is recorded as 21.1%.

For the compound `O=C(NCc1ccccc1)C(c1c(F)cccc1Cl)N(C(=O)c1csnn1)C1CC1` (stereo not drawn), the “hERG current change (%, negative = inhibition) at 1uM” value stood at 10.9%.

For `COc1ccc(-n2nc(C(=O)NCC(=O)Nc3cccc(Cl)c3)c3ccccc3c2=O)cc1OC`, the “hERG current change (%, negative = inhibition) at 1uM” value was 10.4%.

As to `C=CCn1c(C)cc(C2=NNC(=NCC)SC2)c1C.Cl`, the “hERG current change (%, negative = inhibition) at 1uM” value is reported as 5.71%.
